The list shows a part of the results.

The subject of the assay is PF3D7_0420300 AP2 domain 1 (GST-tagged). Nature of the assay: gcPBM binding intensity (ln(normalized median fluorescence intensity)); higher = stronger DNA binding. The gist of the method:
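Alexa488 anti-GST antibody, scanned at 488 nm, detected GST-tagged P. falciparum DNA-binding domains that had been expressed in E. coli and incubated for 1 h on an Agilent 4 × 180k array. The array carried primer-extended double-stranded 36-bp intergenic genomic probes and negative controls. Binding intensity is the highest Masliner-normalised natural-log median intensity across replicate spots of either orientation of each probe.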
For “TCCTTAGAAATATTGATCATAAACTGGAAAGGTATA [XGTACX_negctrl_site354]”, the “gcPBM binding intensity (ln)” value turned out to be 9.06.

On to “GAAATATATAAATTGACACACACATATATACATATA [CACACA_site8323]”, for which the “gcPBM binding intensity (ln)” value is 9.85.

In the case of “TTTAACATAAATTAAACACACAATAAAATACATTAA [CACACA_site6699]”, the “gcPBM binding intensity (ln)” value is 9.54.

Consider “CATAAATACAGATATACACACATATATATATATATA [CACACA_site4528]”, for which the “gcPBM binding intensity (ln)” value was found to be 9.45.

Consider GAGGTACATTAATTAGTGCATTAAAATTTTTATCCT, for which the “gcPBM binding intensity (ln)” value was 9.17.

As to “ATAATACATATAGAAGGTACACTATTATTTTCCTGA [XGTACX_site903]”, the “gcPBM binding intensity (ln)” value worked out at 9.42.

“ATTATCCATGCATTTACACACACACTAATAAAAATT [CACACA_site9358]”: the “gcPBM binding intensity (ln)” value was determined as 9.94.

On to “TTTTAATAAACAAAACGTACACATTATTATTATATA [XGTACX_site335]”, for which the “gcPBM binding intensity (ln)” value was 9.19.

Take “TTTGTAGTTTGCACATGTACACATTTCAAAATAAAG [XGTACX_site7568]”: the “gcPBM binding intensity (ln)” value amounted to 9.1.

As for “AATATATACATATATTGTACATATAGTTTCTTGCAT [XGTACX_site7871]”, the “gcPBM binding intensity (ln)” value was determined as 9.31.

As to “AGAGAGAAAGTTATAACATGCAACAATTTTTAGAAC [TGCATGCA_site96]”, the “gcPBM binding intensity (ln)” value is 9.35.

With “TTTTTTTCTTGTTTTAAATAATATACTGGAAAAAAA [CACACA_negctrl_site585]”, the “gcPBM binding intensity (ln)” value worked out at 8.61.

Regarding TTTTTTTTTTTGTGGGTGCGTTTATAAAAACAGGAA, the “gcPBM binding intensity (ln)” value stood at 9.1.

Turning to “TTTCCATATTGTGGATGTACGTTTTGAGGTTTTTAC [XGTACX_site3362]”, the “gcPBM binding intensity (ln)” value was 9.28.

With “ATTTATCCAAAAAAATGTACAGGATAATTTGTTCAT [XGTACX_site7737]”, the “gcPBM binding intensity (ln)” value was determined as 9.07.

Turning to “TATTATGCCTTTAATATACACACTAATATTTTTTTG [CACACA_site2045]”, the “gcPBM binding intensity (ln)” value amounted to 9.56.

On to “TATAAAAATTAATATTGTACGTTTTATGAAAATAAA [XGTACX_site8237]”, for which the “gcPBM binding intensity (ln)” value turned out to be 8.89.

With “CATAATACCTATAACACACACAATTATACATAAACT [CACACA_site7506]”, the “gcPBM binding intensity (ln)” value turned out to be 9.9.

As to “GGGTTCAATTTAAAGAGTACAAAAAATGTAGGTCAT [XGTACX_site5290]”, the “gcPBM binding intensity (ln)” value came out at 9.24.

As to “ATATATATATATATTTGTACGTATTATGTATTTTTT [XGTACX_site3530]”, the “gcPBM binding intensity (ln)” value was 9.44.

For “AATACAATAAAATAGTGTACATATATATTATGTATA [XGTACX_site8258]”, the “gcPBM binding intensity (ln)” value was determined as 9.37.

As for “GAATAAATTAAAAACGCATGTATCATTACTACATAA [TGCATGCA_site111]”, the “gcPBM binding intensity (ln)” value is 9.18.

For “TTTATATTATACTATACATGCATATAATAAAGGTCA [TGCATGCA_site934]”, the “gcPBM binding intensity (ln)” value amounted to 9.08.

“TTAAAATATGATATATGTACATAATTACTAAAAACA [XGTACX_site276]”: the “gcPBM binding intensity (ln)” value came out at 9.22.

On to “ATTTTATTTTTTTGTGATAATTGATTTATATATTGT [TGCATGCA_negctrl_site563]”, for which the “gcPBM binding intensity (ln)” value came out at 9.4.

“AATAGAATAATCCTTACACACACACGCGCACGAATA [CACACA_site6365]”: the “gcPBM binding intensity (ln)” value is 10.1.

Take “ATTATTTCTTTGTGATGTACAAATAAACATGTTGGT [XGTACX_site5636]”: the “gcPBM binding intensity (ln)” value was 9.21.

In the case of “TATATATTACATTGTTGTACATATATATTATATATA [XGTACX_site60]”, the “gcPBM binding intensity (ln)” value amounted to 9.19.

Take “ATATATATTTCTTAAAGTACATAATAATAAAAATAT [XGTACX_site8981]”: the “gcPBM binding intensity (ln)” value turned out to be 9.16.

Turning to “ATAATTATTAAGAGAACATGCAAAATATATATGTTT [TGCATGCA_site503]”, the “gcPBM binding intensity (ln)” value worked out at 9.38.

Regarding “AAAGCACCCAGGCACACACACAAAGGAAAAGAAAAA [CACACA_site232]”, the “gcPBM binding intensity (ln)” value came to 9.83.

In the case of “ATTTTTATTCTTATTACACACCTAAATATAAAATAT [CACACA_site2064]”, the “gcPBM binding intensity (ln)” value was 9.48.

For the sequence “TTTATATTTATATTGGGTACATAAAAAGCTTGAAAT [XGTACX_site8248]”, the “gcPBM binding intensity (ln)” value was 8.94.

For “ATAAATATGGAGCACACACACATAAACATACATATA [CACACA_site421]”, the “gcPBM binding intensity (ln)” value is 10.1.

For “TGTGTTCATATATGCACACGCATATATATTATTGTT [CACACA_site3822]”, the “gcPBM binding intensity (ln)” value came out at 9.51.

As for TGTGTCCATTGAACAGTGCAATAAAAACTTTTACAT, the “gcPBM binding intensity (ln)” value was 9.15.

Take “AAAGGGGAAAATATTATACATATAATAAATCCGTAT [XGTACX_negctrl_site355]”: the “gcPBM binding intensity (ln)” value amounted to 9.24.

“AAAAAAAAAAAACACACACACACACCGATACATACA [CACACA_site8849]”: the “gcPBM binding intensity (ln)” value is 10.3.

Consider “TTTTTTTTTTTGTGGTGTACCTTTATTTCCTTTTAG [XGTACX_site6934]”, for which the “gcPBM binding intensity (ln)” value is 9.43.

With “ATTCATTTTATTTTTTCACACACACCGATATATATA [CACACA_site9097]”, the “gcPBM binding intensity (ln)” value was found to be 10.

With “ACCCCCATATTCTTTTTACACACTTGAATAAAAAAT [CACACA_site8319]”, the “gcPBM binding intensity (ln)” value was found to be 9.66.

As for “ATTTTTCAATTATGTAGTACATTGATATTTTCATTT [XGTACX_site5369]”, the “gcPBM binding intensity (ln)” value is 9.32.

With “TTTATTTATTAATACACACACACACCCAGACAAAAT [CACACA_site4292]”, the “gcPBM binding intensity (ln)” value stood at 10.2.

As to “TATCTTTTTACAATAGTGCATATGTTATCATTAATA [GTGCAC_site9489]”, the “gcPBM binding intensity (ln)” value was found to be 9.23.

Take “ATTTGCCCATTTAATTAACACACAAATGTTTATATT [CACACA_site8145]”: the “gcPBM binding intensity (ln)” value was 9.64.

For “AGATATATAAATATTACACACTATATATCTATTTAT [CACACA_site6466]”, the “gcPBM binding intensity (ln)” value was 9.44.

Turning to “GTATGCATTATATACACACATACATTTATATATTCT [CACACA_site115]”, the “gcPBM binding intensity (ln)” value is 9.68.

Take “ATTATATACATTTTAGTGCATTACATAATAATATAA [GTGCAC_site9836]”: the “gcPBM binding intensity (ln)” value came to 9.14.

Consider “TTTCTTTTTTGATGCGTGCACATTTGTTTATTTTTC [GTGCAC_site9792]”, for which the “gcPBM binding intensity (ln)” value was 9.49.

With “ACTATTTAATATAGGGTGCAACTTTTTCAAGTAAAT [GTGCAC_site9853]”, the “gcPBM binding intensity (ln)” value was found to be 9.07.

“AGTAATAAAAGTAGAAGTACAATACTTCAAAGATAT [XGTACX_site8562]”: the “gcPBM binding intensity (ln)” value turned out to be 9.44.

For “TATTTCAAAATATGGGTGCAGTTCTTCATGATATAT [GTGCAC_site9658]”, the “gcPBM binding intensity (ln)” value amounted to 9.22.

As for “GTTCTAAAAGTTAATGCATGTTATAAGTTTCCCTCT [TGCATGCA_site94]”, the “gcPBM binding intensity (ln)” value was found to be 9.31.

As for “ATGTATATATTTACGTGTACATATTCATGTGATATC [XGTACX_site5871]”, the “gcPBM binding intensity (ln)” value was 9.26.

For “TGCTATTTTTTCCTTTTTTTGTATCACAATCATATA [CACACA_negctrl_site1576]”, the “gcPBM binding intensity (ln)” value was determined as 9.43.

Turning to “TTATACTTTGGGTGGTGTACTATATTATGCTTATAA [XGTACX_site1106]”, the “gcPBM binding intensity (ln)” value was 9.51.

For the sequence “ATTAAACATAAATATGCACACATATACATATATTCA [CACACA_site8850]”, the “gcPBM binding intensity (ln)” value was found to be 9.4.

The values above are taken from the supplement of paper PMC11417369.
